Among the data in patent CN109897111A (HANGZHOU HANSI BIOLOGICAL MEDICINE CO LTD, dated 2019) are EC50 and IC50 values, retold here.

The target of assay [1] is T1, CD47抗原 (人CD47) (human, UniProt Q08722 partial chain, limits assumed).
T1 construct: construct not described
As to the kind of experiment: ELISA, CD47 coated 0.25 μg/ml. (ELISA stands for enzyme-linked immunosorbent assay.)

The target of the next assay is hPD-1-his抗原 (human, UniProt Q15116 partial chain, limits assumed). In words: ELISA, hPD-1-his coated 0.25 μg/ml.
For assay [2], the target named is T1, CD47抗原 (人CD47). In words: competition ELISA, CD47 coated, competitor SIRPA-his tag 0.6 μg/ml.
For a further assay, the target named is hPD-1-hIgGFc抗原 (human, UniProt Q15116 partial chain, limits assumed). In words: competition ELISA, hPD-1-hIgGFc coated, competitor PDL1-mIgG2aFc 0.6 μg/ml.

One may read the EC50 as the concentration at which the effect is half-maximal. Low readings indicate a more potent agent, high ones a less potent agent. One may read the IC50 as the point on the concentration scale where inhibition reaches its midpoint. A higher IC50 goes with weaker potency in that assay.

T1 sequence (Q08722 19-139 limits assumed): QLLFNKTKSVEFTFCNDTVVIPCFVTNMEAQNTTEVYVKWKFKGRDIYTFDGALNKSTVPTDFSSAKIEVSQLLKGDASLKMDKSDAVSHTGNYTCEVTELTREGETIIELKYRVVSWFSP
Chain of hPD-1-hIgGFc抗原 (Q15116 25-167 limits assumed): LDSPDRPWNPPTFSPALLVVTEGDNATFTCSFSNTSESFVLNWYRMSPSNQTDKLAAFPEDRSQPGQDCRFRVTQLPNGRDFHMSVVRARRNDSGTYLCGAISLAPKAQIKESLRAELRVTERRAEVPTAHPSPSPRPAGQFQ
Chain of hPD-1-his抗原 (Q15116 25-167 limits assumed): as above

B1: 双特异性抗体HX009-5 (抗PD-1/CD47) (bispecific antibody, human IgG4 S228P, kappa)
heavy: EVQLVQSGGGLVQPGGSLKLSCAASGFTFSSYGMSWVRQAPGKGLDWVATISGGGRDTYYPDSVKGRFTISRDNSKNNLYLQMNSLRAEDTALYYCARQKGEAWFAYWGQGTLVTVSAASTKGPSVFPLAPCSRSTSESTAALGCLVKDYFPEPVTVSWNSGALTSGVHTFPAVLQSSGLYSLSSVVTVPSSSLGTKTYTCNVDHKPSNTKVDKRV[human IgG4 Fc with S228P (EU numbers) not listed]GGGGSGGGGSERGETGPEE[about 120 residues not listed]
light: DIVLTQSPASLAVSPGQRATITCRASESVDNYGISFMNWFQQKPGQPPKLLIYAASNKGTGVPARFSGSGSGTDFTLNINPMEEEDTAMYFCQQSKEVPWTFGGGTKLEIKRTVAAPSVFIFPPSDEQLKSGTASVVCLLNNFYPREAKVQWKVDNALQSGNSQESVTEQDSKDSTYSLSSTLTLSKADYEKHKVYACEVTHQGLSSPVTKSFNRGEC
notes: expressed in 293 cells
For the molecule B1, the 50% effective concentration (EC50) in the assay with CD47抗原 (人CD47) [1] turned out to be 0.6 nM; with hPD-1-his抗原, 0.05 nM. Further, the IC50 in the assay with CD47抗原 (人CD47) [2] is 21 nM; with hPD-1-hIgGFc抗原 it was 1.5 nM.
